{
  "source": "PubChem BioAssay (NCI)",
  "system": "NCI-H322M lung",
  "assay": "NCI tumour cell line growth inhibition, 48 h",
  "note": "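Where inhibition never reached the appropriate level, the endpoint shown equals the highest concentration tested. Otherwise, values were interpolated linearly from a five-concentration, 48-hour dose response in 96-well plates. GI50 = concentration required for 50% inhibition of growth. TGI marks complete inhibition of growth.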",
  "data": [
    {"smiles": "Cc1cc(N=C(N)c2ccccc2)ccc1OCCCCCCCCn1ccnc1", "values": [
      {"measurement": "GI50", "value": 0.534, "unit": "µM"},
      {"measurement": "TGI", "value": 13.7, "unit": "µM"}
    ]}
  ]
}
